Assay results reported in the supplement of paper PMC12217912.
This is one part of the list. The full chains were built here from the parent and the listed change. Values near 0.05 are background.

B1: TEV protease; numbered along this chain (parent)
chain: MGESLFKGPRDYNPISSSICHLTNESDGHTTSLYGIGFGPFIITNKHLFRRNNGTLVVQSLHGVFKVKDTTTLQQHLVDGRDMIIIRMPKDFPPFPQKLKFREPQREERICLVTTNFQTKSMSSMVSDTSCTFPSGDGIFWKHWIQTKDGQCGSPLVSTRDGFIVGIHSASNFTNTNNYFTSVPKNFMELLTNQEAQQWVSGWRLNADSVLWGGHKVFMVKPEEPFQPVKEATQL
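Also: Bxb1 expression induced with 0.2% (w/v) L-rhamnose at OD600 near 0.5, cultures sampled hourly, flipped fraction per protease–substrate barcode pair counted by paired-end Illumina sequencing.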

Variants of: B1
Test: raw area under fraction-flipped curve 0-4 h after induction (AUC4h, not background-subtracted), DNA-recorder readout of cleavage of the substrate (dimensionless); higher = more cleavage of the substrate by the protease variant
Settings: temperature: 34 °C; time window: 0-4 h after rhamnose induction
Description: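 In vivo DNA recorder in E. coli TOP10(DE3) ΔrhaA at 34 °C. Each TEVp single-site mutant (parent TEVp 0) is paired with a single-site variant of the 7-mer TEVs (canonical ENLYFQ|S). The substrate sits between flexible linkers in a Bxb1-sfGFP-TEVs-SsrA fusion, so cleavage stabilises Bxb1 and speeds flipping of a recombination array, read by NGS. The value is the raw area under the fraction-flipped curve over 0-4 h after rhamnose induction (AUC4h), with ≥20 reads per time point. It is not background-subtracted; inactive controls average about 0.047.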
For P93L, the “area with substrate ENLYAQS” value was 0.0644, the “area with substrate ENLYHQS” value was 0.0628 and the “area with substrate ENLYIQS” value was 0.105. For the same variant, the “area with substrate ENLYNQS” value was 0.0864 and the “area with substrate ENLYYQS” value was 0.0669.
In the case of P93C, the “area with substrate ENLYAQS” value is reported as 0.0871, the “area with substrate ENLYEQS” value is reported as 0.0589 and the “area with substrate ENLYHQS” value is reported as 0.0698. For the same variant, the “area with substrate ENLYIQS” value was 0.143, the “area with substrate ENLYNQS” value was 0.0578 and the “area with substrate ENLYRQS” value was 0.0591. For the same variant, the “area with substrate ENLYYQS” value was 0.0749.
With T181K the “area with substrate ENLYAQS” value was 0.0545, the “area with substrate ENLYDQS” value was 0.0595 and the “area with substrate ENLYGQS” value was 0.0619. The “area with substrate ENLYKQS” value was 0.0575, the “area with substrate ENLYMQS” value was 0.0583 and the “area with substrate ENLYPQS” value was 0.0592. The “area with substrate ENLYVQS” value was 0.113 and the “area with substrate ENLYYQS” value was 0.0516.
With R81P the “area with substrate ENLYAQS” value was 0.0554, the “area with substrate ENLYDQS” value was 0.0753 and the “area with substrate ENLYGQS” value was 0.0231. The “area with substrate ENLYIQS” value was 0.0641, the “area with substrate ENLYRQS” value was 0.0624 and the “area with substrate ENLYVQS” value was 0.0697.
In the case of R81A, the “area with substrate ENLYAQS” value is reported as 0.0406, the “area with substrate ENLYDQS” value is reported as 0.0537 and the “area with substrate ENLYEQS” value is reported as 0.0609. For the same variant, the “area with substrate ENLYGQS” value was 0.0625, the “area with substrate ENLYKQS” value was 0.0588 and the “area with substrate ENLYLQS” value was 0.0825. The “area with substrate ENLYNQS” value was 0.0589, the “area with substrate ENLYPQS” value was 0.0752 and the “area with substrate ENLYQQS” value was 0.0593. The “area with substrate ENLYSQS” value was 0.0497 and the “area with substrate ENLYWQS” value was 0.0678.
With G166E the “area with substrate ENLYAQS” value was 0.064, the “area with substrate ENLYCQS” value was 0.0597 and the “area with substrate ENLYDQS” value was 0.0552. The “area with substrate ENLYHQS” value was 0.0485, the “area with substrate ENLYKQS” value was 0.0178 and the “area with substrate ENLYNQS” value was 0.0485. For the same variant, the “area with substrate ENLYQQS” value was 0.0458, the “area with substrate ENLYTQS” value was 0.0622 and the “area with substrate ENLYYQS” value was 0.0515.
With F140S the “area with substrate ENLYAQS” value was 0.0681, the “area with substrate ENLYCQS” value was 0.0682 and the “area with substrate ENLYEQS” value was 0.06. The “area with substrate ENLYHQS” value was 0.0785, the “area with substrate ENLYIQS” value was 0.0436 and the “area with substrate ENLYKQS” value was 0.0628. For the same variant, the “area with substrate ENLYRQS” value was 0.06.
In the case of I145G, the “area with substrate ENLYAQS” value is reported as 0.0626, the “area with substrate ENLYMQS” value is reported as 0.118 and the “area with substrate ENLYNQS” value is reported as 0.059. For the same variant, the “area with substrate ENLYPQS” value was 0.072, the “area with substrate ENLYRQS” value was 0.0845 and the “area with substrate ENLYTQS” value was 0.0731. The “area with substrate ENLYVQS” value was 0.107 and the “area with substrate ENLYYQS” value was 0.0648.
In the case of S201E, the “area with substrate ENLYAQS” value is reported as 0.0762, the “area with substrate ENLYDQS” value is reported as 0.0592 and the “area with substrate ENLYEQS” value is reported as 0.0674. The “area with substrate ENLYHQS” value was 0.0669, the “area with substrate ENLYIQS” value was 0.0958 and the “area with substrate ENLYMQS” value was 0.0665. For the same variant, the “area with substrate ENLYPQS” value was 0.1, the “area with substrate ENLYQQS” value was 0.0571 and the “area with substrate ENLYRQS” value was 0.0623. For the same variant, the “area with substrate ENLYVQS” value was 0.0996, the “area with substrate ENLYWQS” value was 0.077 and the “area with substrate ENLYYQS” value was 0.0838.
In the case of S201C, the “area with substrate ENLYAQS” value is reported as 0.0744, the “area with substrate ENLYEQS” value is reported as 0.0737 and the “area with substrate ENLYGQS” value is reported as 0.0765. For the same variant, the “area with substrate ENLYIQS” value was 0.105, the “area with substrate ENLYRQS” value was 0.0742 and the “area with substrate ENLYVQS” value was 0.111. For the same variant, the “area with substrate ENLYYQS” value was 0.0587.
For M188R, the “area with substrate ENLYAQS” value was 0.0702, the “area with substrate ENLYDQS” value was 0.0591 and the “area with substrate ENLYEQS” value was 0.0663. For the same variant, the “area with substrate ENLYGQS” value was 0.0459, the “area with substrate ENLYHQS” value was 0.0655 and the “area with substrate ENLYIQS” value was 0.137. For the same variant, the “area with substrate ENLYKQS” value was 0.0661, the “area with substrate ENLYNQS” value was 0.0658 and the “area with substrate ENLYPQS” value was 0.0701. For the same variant, the “area with substrate ENLYQQS” value was 0.063, the “area with substrate ENLYSQS” value was 0.0748 and the “area with substrate ENLYVQS” value was 0.119. The “area with substrate ENLYYQS” value was 0.0643.
For F92N, the “area with substrate ENLYAQS” value was 0.0628, the “area with substrate ENLYDQS” value was 0.0507 and the “area with substrate ENLYEQS” value was 0.0555. For the same variant, the “area with substrate ENLYHQS” value was 0.0682, the “area with substrate ENLYIQS” value was 0.118 and the “area with substrate ENLYMQS” value was 0.105. The “area with substrate ENLYNQS” value was 0.0072, the “area with substrate ENLYPQS” value was 0.0561 and the “area with substrate ENLYRQS” value was 0.0539. For the same variant, the “area with substrate ENLYSQS” value was 0.0757.
For F92L, the “area with substrate ENLYAQS” value was 0.0677, the “area with substrate ENLYGQS” value was 0.0438 and the “area with substrate ENLYHQS” value was 0.0734. The “area with substrate ENLYKQS” value was 0.0597, the “area with substrate ENLYMQS” value was 0.1 and the “area with substrate ENLYNQS” value was 0.0767. The “area with substrate ENLYPQS” value was 0.061, the “area with substrate ENLYRQS” value was 0.0578 and the “area with substrate ENLYVQS” value was 0.122. The “area with substrate ENLYYQS” value was 0.0924.
In the case of N172R, the “area with substrate ENLYAQS” value is reported as 0.0507, the “area with substrate ENLYDQS” value is reported as 0.0601 and the “area with substrate ENLYEQS” value is reported as 0.0556. For the same variant, the “area with substrate ENLYGQS” value was 0.0649, the “area with substrate ENLYLQS” value was 0.0484 and the “area with substrate ENLYPQS” value was 0.0636. For the same variant, the “area with substrate ENLYQQS” value was 0.0655, the “area with substrate ENLYRQS” value was 0.0535 and the “area with substrate ENLYYQS” value was 0.0753.
For N193C, the “area with substrate ENLYAQS” value was 0.0764, the “area with substrate ENLYDQS” value was 0.024 and the “area with substrate ENLYGQS” value was 0.0643. The “area with substrate ENLYIQS” value was 0.112, the “area with substrate ENLYLQS” value was 0.0745 and the “area with substrate ENLYNQS” value was 0.0794. The “area with substrate ENLYQQS” value was 0.0765.
In the case of F163M, the “area with substrate ENLYAQS” value is reported as 0.0678, the “area with substrate ENLYHQS” value is reported as 0.0606 and the “area with substrate ENLYKQS” value is reported as 0.104. The “area with substrate ENLYNQS” value was 0.0681, the “area with substrate ENLYQQS” value was 0.0551 and the “area with substrate ENLYRQS” value was 0.0571. For the same variant, the “area with substrate ENLYTQS” value was 0.0921 and the “area with substrate ENLYWQS” value was 0.0878.
For P94V, the “area with substrate ENLYAQS” value was 0.0739, the “area with substrate ENLYEQS” value was 0.0636 and the “area with substrate ENLYGQS” value was 0.0468. The “area with substrate ENLYMQS” value was 0.12, the “area with substrate ENLYNQS” value was 0.0832 and the “area with substrate ENLYPQS” value was 0.0732. The “area with substrate ENLYRQS” value was 0.0551, the “area with substrate ENLYTQS” value was 0.0936 and the “area with substrate ENLYVQS” value was 0.0967. For the same variant, the “area with substrate ENLYYQS” value was 0.0877.
For Q118W, the “area with substrate ENLYAQS” value was 0.0764, the “area with substrate ENLYCQS” value was 0.0785 and the “area with substrate ENLYDQS” value was 0.072. For the same variant, the “area with substrate ENLYEQS” value was 0.0622, the “area with substrate ENLYGQS” value was 0.0673 and the “area with substrate ENLYHQS” value was 0.0784. The “area with substrate ENLYRQS” value was 0.0583, the “area with substrate ENLYVQS” value was 0.117 and the “area with substrate ENLYWQS” value was 0.0679.
For S158V, the “area with substrate ENLYAQS” value was 0.0559, the “area with substrate ENLYCQS” value was 0.0566 and the “area with substrate ENLYEQS” value was 0.0532. For the same variant, the “area with substrate ENLYHQS” value was 0.046, the “area with substrate ENLYIQS” value was 0.0629 and the “area with substrate ENLYKQS” value was 0.0199. For the same variant, the “area with substrate ENLYNQS” value was 0.0479, the “area with substrate ENLYPQS” value was 0.0549 and the “area with substrate ENLYSQS” value was 0.0513. For the same variant, the “area with substrate ENLYTQS” value was 0.09 and the “area with substrate ENLYVQS” value was 0.0669.
